{"source": "the RNAGym collection of RNA variant scans (doi:10.1073/pnas.2313332121)", "parents": {"B1": {"name": "TPR 5TU (parent)", "chain": "GGAUCUUCUCGAUCUAACAAAAAAGACAAAUCUGCCACAAAGCUUGAGAGCAUCUUCGGAUGCAGAGGCGGCAGCCUUCGGUGGCGCGAUAGCGCCAACGUUCUCAACUAUGACACGCAAAACGCGUGCUCCGUUGAAUGGAGUUUAUCAUG"}}, "note": "This sample is rich in variants without activity."}
{"variants_of": "B1", "assay": "polymerase ribozyme fitness, log enrichment relative to wild type (log ratio); higher = more active; in vitro selection for triplet polymerase activity", "outline": "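To select mutant libraries of each subunit of a heterodimeric triplet polymerase ribozyme, built by PCR and transcribed, each was annealed with a biotinylated primer, partner subunit and triplets, then incubated frozen at −7 °C. Extended constructs were gel-excised, captured on streptavidin beads and amplified by RT-PCR, in one round carried out in triplicate. Illumina sequencing of input and output libraries kept genotypes with ≥10 input reads and ≥1 read per output. Fitness is the base-2 logarithm of genotype enrichment relative to wild-type enrichment, from inverse-variance-weighted replicate averages.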"}
{"variant": "GGAUCUUCUCGAUCUAACCAAAAAGACAAAUCUGCCACAAAGCUUGAGAGCCUCUUCGGAUGCAGAGGCGGCAGCCUUCGGUGGCGCGCUAGCGCCAACGUUCUCAACUAUGACACGCAAAACGCGUGCUCCGUGGAAUGGAGUUUAUCAUG", "note": "[A19C A52C A89C U135G]", "polymerase ribozyme fitness (log ratio)": "≤ -4.2"}
{"variant": "GGAUCUUCUCGAUCUAACCAAAAAGACAAAUCUGCCACAAAGCUUGAGAGCUUCUUCGGAUGCAGAGGCGGCAGCCUUCGGUGGCGAGAUAGCGCCUACGUUCUCAACUAUGACACGCAAAACGCGCGCUCCGUUGAAUGGCGUUUAUCAUG", "note": "[A19C A52U C87A A97U U127C A142C]", "polymerase ribozyme fitness (log ratio)": "≤ -4.2"}
{"variant": "GGAUCUUCUCGAUCUAACCAAAAAGACAAAUCUGCCACAAAGCUUGAGAGCAUCUUCGGGUGCAGAGGCGGCAGCCUUAGGUGGCGCGAUAGCGCCAACGUUCUCAACUAUGACACGCAAAACGCGUGCUCCGUUGAAUGGAGUUUAUCAUG", "note": "[A19C A60G C79A]", "polymerase ribozyme fitness (log ratio)": "≤ -4.2"}
{"variant": "GGAUCUUCUCGAUCUAACCAAAAAGACAAAUCUGCCACAAAGCUUGAGAGCAUCUUCGGAUGCAGCGGCGGCAGCCUUCGGUGGCGCGAUAGCACCAACGUUCUCAACUAUGACACGCAAAACGCGUGCUCCGGUGAAUGGAGUUUAUCAUG", "note": "[A19C A66C G94A U134G]", "polymerase ribozyme fitness (log ratio)": "≤ -4.2"}
{"variant": "GGAUCUUCUCGAUCUAACCAAAAAGAAAAAUCUGCCACAAAGCUUGCGAGCAUCUUCAAAUGCAGAGGCGGCAGCCUUCGGUGGCGCGAUGGCGCCAACGUUCUCAACUAUGACACGCAAAAAGCGUGCUCCGUUGAAUGGAGUUUAUCAUG", "note": "[A19C C27A A47C G58A G59A A91G C123A]", "polymerase ribozyme fitness (log ratio)": "≤ -4.2"}
{"variant": "GGAUCUUCUCGAUCUAACCAAAAAGAGAAAUCUGCCACAAAGCUUGAGAGCAUCUUCGGAUGCAGAGGCAGCAGCUUUCGGUGGCGCGAUAGCUCCAACGUUUUCAACUAUGACACGCAUAACGCGUGAUCCGUUGAAUGGAGUUUACCAUG", "note": "[A19C C27G G70A C76U G94U C103U A120U C129A U148C]", "polymerase ribozyme fitness (log ratio)": "≤ -4.2"}
{"variant": "GGAUCUUCUCGAUCUAACCAAAAAGAUACAUCUGCCACAAAGCUUGAGAGCCUCUUCGGAUGCAGAGGCGGCAGCCUUCGGUGGCCCGAUAGCGCCAACGUUCUCAACUAUGACACGCAAAACGCGUGCUCCGUUGGAUGGAUUUUAUCAUG", "note": "[A19C C27U A29C A52C G86C A137G G143U]", "polymerase ribozyme fitness (log ratio)": "≤ -4.2"}
{"variant": "GGAUCUUCUCGAUCUAACCAAAAAGACAAAUGUGCCACAAAGCUUCAGAGCAUCUUCGGAUGCAGAGGCGGCAGCCUUCGGUGACGCGAUAGCGCCAACGUUCUCAACUAUGACAGGCAAAACGCGUGCUCCGUUGAAUGUAGUUUAUCAUG", "note": "[A19C C32G G46C G84A C116G G141U]", "polymerase ribozyme fitness (log ratio)": "≤ -4.2"}
{"variant": "GGAUCUUCUCGAUCUAACCAAAAAGACAAAUCUGCAACAAAGCUUGAGAGCAUCUUCGGAUGCAGAGGCGGCAGCCUUGGGUGGCGCGAUAGCGCCAACGUUCUCAACUAUGAAACGCAAAACGCGUGCUCCGUUGAAUGAAGUUUAUCAUG", "note": "[A19C C36A C79G C114A G141A]", "polymerase ribozyme fitness (log ratio)": "≤ -4.2"}
{"variant": "GGAUCUUCUCGAUCUAACCAAAAAGACAAAUCUGCUACAAAGCUUGAGAGCAUCUUCGGACGCAGAGGCGGCAGCCUUCGGUGGCGCGAUAGCGCCAACGUUCUCAACUAUGACACGCAAAACGCGUGCUCUGUUGAAUGGAGUUUAUCAUG", "note": "[A19C C36U U61C C132U]", "polymerase ribozyme fitness (log ratio)": "≤ -4.2"}
{"variant": "GGAUCUUCUCGAUCUAACCAAAAAGACAAAUCUGCCAAAAAGCUUGAGAGCAUCUUAGGAUGCAGAGGCGGCAGCCUUCUGUGGCGCGAUAGCGUCAACGUUCUCAACUAUGACAGGCAAAACGCGUGCUCCGUUGAAUGGAGUUUAUCAUG", "note": "[A19C C38A C57A G80U C95U C116G]", "polymerase ribozyme fitness (log ratio)": -1.83}
{"variant": "GGAUCUUCUCGAUCUAACCAAAAAGACAAAUCUGCCAUAAAGCUUGAGAGCAUCUUCGGAUGCAGAGGCGGCAGCCUUCGGUGGCGCGAUAGCGCUAACGUUCUCAACUAUGACACGCAAAACGCGUGCUCCGUUGAAUGGUGUUUAUCAUG", "note": "[A19C C38U C96U A142U]", "polymerase ribozyme fitness (log ratio)": -0.812}
{"variant": "GGAUCUUCUCGAUCUAACCAAAAAGACAAAUCUGCCACAAAGCUUGAGAGAAUCUUCGGAUGCAGAGGCGGCAGACUUCGGUGGCGCGAUAGAGCCAACGUUCUCAACUAUGACACCCAAAACGCGUGCUCCGUUGAAUGGAGUUUAUCAUG", "note": "[A19C C51A C75A C93A G117C]", "polymerase ribozyme fitness (log ratio)": "≤ -4.2"}
{"variant": "GGAUCUUCUCGAUCUAACCAAAAAGACAAAUCUGCCACAAAGCUUGAGAGCAUCUUUGGAUGCAGAGGCGGCAGCCUUCGGUGGCGCGAUAGCUCCAACGUUCUCAACUAUGACACGCAAAACGCGUGCUCCGUUGAAUGGAGUUUAUCAUG", "note": "[A19C C57U G94U]", "polymerase ribozyme fitness (log ratio)": -0.554}
{"variant": "GGAUCUUCUCGAUCUAACCAAAAAGACAAAUCUGCCACAAAGCUUGAGAGCAUCUUCGGAUGCAGAGGCGGCAGCCUUCGGUGGGGCGAUAGCGCCAAGGUUCUCAACUAUGACACGCAAAACGCGUGCUCCUUUGAAUGGAGUUUAUCAUG", "note": "[A19C C85G C99G G133U]", "polymerase ribozyme fitness (log ratio)": "≤ -4.2"}
{"variant": "GGAUCUUCUCGAUCUAACCAAAAAGACAAAUCUGCCACAAAGCUUGAGAGCAUCUUCGGAUGCAGAGGCGGCAGCCUUCGGUGGUGCGAUAGCGCCAACGUUCUCAACUAUGACACGCAAAACGCGUGCUCCGUUGAAUGGAGUUUAUCAUG", "note": "[A19C C85U]", "polymerase ribozyme fitness (log ratio)": -0.536}
{"variant": "GGAUCUUCUCGAUCUAACCAAAAAGACAAAUCUGCCACAAAGCUUGAGAGCAUCUUCGGAUGCAGAGGCGGCAGCCUUCGGUGGCGCGAUAGAUCCAACGUUCUCAACUAUGACACGCAAAACGCUUGCUCCGUUGAAUGGAGUUUAUCAUG", "note": "[A19C C93A G94U G126U]", "polymerase ribozyme fitness (log ratio)": "≤ -4.2"}
{"variant": "GGAUCUUCUCGAUCUAACCAAAAAGACAAAUCUGCCACAAAGCUUGAGAGCAUCUUCGGAUGCAGAGGCGGCAGCCUUCGGUGGCGCGAUAGGGCCAACGUUCUCAACUAUGACACGCAAAACGCGUGCUCCGUUGAAUGGAGUUUAUCAUG", "note": "[A19C C93G]", "polymerase ribozyme fitness (log ratio)": -2.84}
{"variant": "GGAUCUUCUCGAUCUAACCAAAAAGACAAAUCUGCCACAAAGCUUGAGAGCAUCUUCGGAUGCAGAGGCGGCAGCCUUCGGUGGCGCGAUAGCGCCAACGUUAUCAACUUUGACACGCAAAACGCGUGCUCCGAUGAAUGGAGUUUAUCAUG", "note": "[A19C C103A A110U U134A]", "polymerase ribozyme fitness (log ratio)": "≤ -4.2"}
